The target of assay [1] is SEP3^M(1-57)-3FLAG (Arabidopsis thaliana) (UniProt O22456). The experiment in a line: pull-down; both constructs co-translated in wheat germ extract (double input reaction), completed with PBS (150 mM sodium phosphate pH 7.2, 150 mM NaCl), anti-Myc or anti-FLAG magnetic beads, 1 h at 4 °C, four washes, western blot with anti-c-Myc and anti-FLAG.
Assay [2] concerns the target SEP3^MI(1-90)-3FLAG (Arabidopsis thaliana) (UniProt O22456). Described as above.
Assay [3] deals with SEP3-3FLAG (full-length, pTnT-SEP3-3FLAG) (Arabidopsis thaliana) (UniProt O22456). As to the kind of experiment: pull-down; sequential purification for seq-DAP-seq: co-translated in a TnT reaction, anti-FLAG magnetic beads in IP buffer (PBS, 0.005% NP40), elution with 3xFLAG peptide, then capture on anti-c-Myc magnetic beads.
Assay [4] deals with AGAMOUS (AG), yeast two-hybrid fusion (Arabidopsis thaliana) (UniProt P17839). The experiment in a line: two-hybrid; matrix-based Gal4 yeast two-hybrid, targets in both bait and prey vectors; 7 days at 20 °C; scored positive only with growth on all three selective media (-LWH + 1 mM 3-AT, -LWH + 5 mM 3-AT, -LWA) and in both replica.
Assay [5] deals with AG^IAP1 (AG with residues 74-107 replaced by residues 58-92 of AP1), yeast two-hybrid fusion (Arabidopsis thaliana) (UniProt P17839+P35631). The assay is described as above.
Assay [6] deals with APETALA1 (AP1), yeast two-hybrid fusion (Arabidopsis thaliana) (UniProt P35631). The description is as above.

Chains of the proteins cited; added tags and fusions are not shown. Lines headed by an entry give the natural chain unless they say otherwise; changes in a name come on top. Residues count along the entry.
UniProt O22456: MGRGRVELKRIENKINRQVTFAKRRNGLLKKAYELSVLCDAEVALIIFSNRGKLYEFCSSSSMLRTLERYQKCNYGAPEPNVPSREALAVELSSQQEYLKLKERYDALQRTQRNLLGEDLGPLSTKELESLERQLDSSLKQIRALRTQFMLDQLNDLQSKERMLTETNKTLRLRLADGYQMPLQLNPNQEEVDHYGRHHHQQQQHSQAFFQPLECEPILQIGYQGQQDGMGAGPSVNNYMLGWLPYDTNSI
SEP3^MI(1-90)-3FLAG: residues 1-90 of O22456
SEP3^M(1-57)-3FLAG: residues 1-57 of O22456
UniProt P17839: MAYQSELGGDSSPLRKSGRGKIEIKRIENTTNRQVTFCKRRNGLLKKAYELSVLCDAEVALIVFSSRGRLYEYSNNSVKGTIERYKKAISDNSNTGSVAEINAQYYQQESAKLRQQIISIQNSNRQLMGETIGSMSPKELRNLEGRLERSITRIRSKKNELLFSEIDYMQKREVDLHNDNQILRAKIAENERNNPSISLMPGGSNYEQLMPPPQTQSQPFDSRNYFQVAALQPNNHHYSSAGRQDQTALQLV
UniProt P35631: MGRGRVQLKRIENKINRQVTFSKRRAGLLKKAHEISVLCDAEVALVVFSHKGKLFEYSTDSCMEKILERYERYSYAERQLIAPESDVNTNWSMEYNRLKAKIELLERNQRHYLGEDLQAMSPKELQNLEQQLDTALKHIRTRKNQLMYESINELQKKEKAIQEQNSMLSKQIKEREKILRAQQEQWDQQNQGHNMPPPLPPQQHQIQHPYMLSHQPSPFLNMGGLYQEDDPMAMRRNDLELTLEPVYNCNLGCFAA
UniProt O64645: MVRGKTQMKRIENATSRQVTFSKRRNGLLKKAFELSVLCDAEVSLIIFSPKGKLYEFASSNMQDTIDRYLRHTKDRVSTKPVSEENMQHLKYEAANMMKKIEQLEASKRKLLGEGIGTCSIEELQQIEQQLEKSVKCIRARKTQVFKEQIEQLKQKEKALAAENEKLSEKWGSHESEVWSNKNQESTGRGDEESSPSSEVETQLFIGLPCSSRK
UniProt P29382: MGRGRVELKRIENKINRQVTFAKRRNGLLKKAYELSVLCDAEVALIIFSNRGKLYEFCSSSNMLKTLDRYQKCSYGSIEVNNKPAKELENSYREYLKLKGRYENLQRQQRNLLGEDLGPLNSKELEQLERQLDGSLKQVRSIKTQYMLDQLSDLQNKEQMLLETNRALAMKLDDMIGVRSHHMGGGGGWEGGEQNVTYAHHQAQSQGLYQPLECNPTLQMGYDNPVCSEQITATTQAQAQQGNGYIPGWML

These are yes or no findings as the source states them, for the method shown. For some of these results: Binding seen in cells or lysates may run through a third protein. Some results given as binding are weak or reduced against the parent protein; the word gives no strength.

From publication PMC8346517 come the findings set out here.

For the substance “AG(ΔN)^M(17-73)-5MyC (from UniProt P17839 17-73) (domain or fragment)”, the binding result in assay [1] is recorded as “binds”. Regarding “AG(ΔN)^MI(17-107)-5MyC (from UniProt P17839 17-107) (domain or fragment)”, in assay [2], the binding result is on record as “binds”.

“AG^IAP1-5MyC (full-length chimera, pTnT-AG^IAP1-5MyC) (from UniProt P17839 1-73; P35631 58-92; P17839 108-252)”: the binding result in assay [3] was “binds”. On to “AG^M(1-73)-5MyC (from UniProt P17839 1-73) (domain or fragment)”, for which the binding result in assay [1] was “binds”.

Turning to “AG^MI(1-107)-5MyC (from UniProt P17839 1-107) (domain or fragment)”, the binding entry in assay [2] is on record as “binds”. As to “AP1^M(1-57)-5MyC (from UniProt P35631 1-57) (domain or fragment)”, the binding result in assay [1] is reported as “binds”. “AP1^MI(1-92)-5MyC (from UniProt P35631 1-92) (domain or fragment)”: in assay [2], the binding entry is “binds”. Consider “SOC1, yeast two-hybrid fusion (from UniProt O64645 1-214)”, for which the values for the binding entry in assay [4] and in assay [5] were “no binding” and “binds”, respectively. Consider “…1 (SEP1), yeast two-hybrid fusion (from UniProt P29382 1-251)”, for which the binding result in assay [4] and in assay [6] was “binds” in each case. “…3 (SEP3), yeast two-hybrid fusion (from UniProt O22456 1-251)”: the binding result in assay [4] and in assay [6] was “binds” each time.
